# ChEMBL document CHEMBL4888484, “Replenishing the malaria drug discovery pipeline: Screening and hit evaluation of the MMV Hit Generation Library 1 (HGL1) against asexual blood stage Plasmodium falciparum ,using a nano luciferase reporter read-out” (2022)
# In all, about 150,000 compounds went through this assay and about 540 (0.36%) showed an effect of 50% or more. Some of the results follow.
# Test system: Plasmodium falciparum
# Assay: Primary screen in NF54 nanoGlo assay, in single point, at 2uM, 72h; a lower Z score goes with more inhibition
# Format: functional, Erythrocyte
# Conditions: timepoint 72 hour
Structure (SMILES),% Inhibition [%],Z score
CCOc1ccncc1S(=O)(=O)N1CCC[C@@]12CCOC2,-7,1.23
O=C(N[C@@H]1CC[C@H]2CCOc3ccccc3C(=O)N3CCN(Cc4cccc(Cl)c4)C[C@H]3C(=O)NC[C@H]1O2)C1CCOCC1,-13,2.01
COc1cccc(CN2CCN(Cc3cnc(N4CCCC4)s3)C[C@@H]2CCO)c1,-3,0.63
CC(CNC(C1CC1)C1CC1)N1CCOCC1C (centres undefined),-5,0.4
O=C(CC1CC1)Nc1ccnn1C1CCCCC1,-19,1.96
O=C(Nc1ccc(N2CCN(C(=O)c3ccccc3)CC2)nc1)c1ccccc1,-6,1.21
Cc1cc(=O)n(CCN(C)Cc2snnc2C)c(=O)[nH]1,-2,0.37
CCCn1c(=O)[nH]c2c(C(=O)N3CCN(C(C)C)CC3)snc2c1=O,-10,1.69
Cc1ccc(-c2cc(C(N)=O)ccn2)c(-n2nc(C)cc2C)c1,-8,1.17
CC(C)N1CCO[C@H](c2noc(C=Cc3cccnc3)n2)C1,-15,1.25
CC(=O)N(Cc1cc2ccc(C)cc2nc1O)C[C@H]1CCCO1,-19,2.22
CC(=O)Nc1ccc(-c2cn([C@H]3CCCN(c4ncccn4)C3)nn2)cc1,-13,1.19
CN(C)c1cccc(-c2cc(NCCO)nc(N)n2)c1,-2,0.38
Cc1noc(C)c1S(=O)(=O)Nc1ccc2c(c1)OC1(CCCC1)O2,5,-0.73
COCCOCC(=O)Nc1ccc(OC(C)C)cc1,-4,0.73
COC1(C)CN(C(=O)c2cnns2)C1,1,-0.27
O=C(COCC(F)(F)C(F)F)N1CCC[C@]2(CCC(=O)N(C3CC3)C2)C1,-13,1.39
O=C(COc1ccccc1F)Nc1ccc(C2(c3ccc(NC(=O)COc4ccccc4F)cc3)CCCCC2)cc1,-8,1.57
CCc1ocnc1C(=O)Nc1c(C)cnn1C(CC)CC,-6,0.92
CC1COC(CO)CN1C(=O)Cc1cc2c(ccc3ccccc32)o1 (centres undefined),12,-1.69
Cc1nc(CCNC(=NCc2ccccc2)NCC2CC2)cs1,-4,0.44

Structure (SMILES),% Inhibition [%],Z score
CN(C)S(=O)(=O)c1cccc(C(=O)NC2(C)Cc3ccccc3C2)c1,-3,0.38
Cc1ncccc1CC(=O)N1CCCC[C@H]1c1nc(=O)[nH][nH]1,-8,1.49
Cc1cc(C)n([C@H](Nc2ccc(Br)cn2)c2ccc(Cl)cc2Cl)n1,-39,4.54
O=C(Nc1cccc2ccccc12)c1ccc2c(c1)OCO2,-11,1.5
Cc1cccc([C@H](C)NCCc2cnn(C)c2)c1C,9,-0.93
CCN(CCCNC(=O)Nc1ccn(C(C)(C)C)n1)S(C)(=O)=O,1,-0.13
Cc1cc(C(=O)C[n+]2cc(Cl)n(C)c2)c(C)n1-c1ccc(OC(F)F)cc1,19,-3
Nc1cc(C(=O)O)ccc1OCC(F)(F)F,-12,1.88
Cc1ccc2ncccc2c1CNC(=O)N1CCN(Cc2nccn2C)CC1,-12,1.7
COC1CCC(NC(=O)N2CCc3ccccc3CC2)C1 (centres undefined),-15,1.51
COCc1ccccc1CNCc1ccc2c(c1)CCO2,-10,1.23
Cc1noc(C(C)C)c1C(=O)N1CC[C@H](C(=O)NCc2ccccc2)C1,-6,0.68
CC1(C)C(=O)Nc2ccc(C(=O)Nc3nc4n(n3)CCCC4)cc21,-15,2.86
CCOc1ccc(-c2cc(/C=C/c3ccc(OC)cc3)nc(-c3ccc(OCC)cc3)c2)cc1,-16,1.85
O=C1CN(c2ccnc(C(=O)N3CCC[C@H]3c3ccn[nH]3)c2)CCN1,-41,4.84
CN(C)c1ccc(NC(=O)CN(Cc2nc(-c3ccccc3)cs2)C(=O)Cn2nnc3ccccc32)cc1,-8,1.2
COCCNc1ncccc1-c1noc([C@@H]2CCCN2C2CCN(C)CC2)n1,-11,1.45
O=C(c1cc(-c2ccccc2)c(N2CCOCC2)s1)N1CCCc2ccccc21,-14,2.18
COc1ccc2c(c1)CCc1c(C(=O)N3CCN(c4cc(=O)n(C)c(=O)n4C)CC3)n[nH]c1-2,-1,0.19
CC(C)=C(F)c1nc(-c2cscn2)no1,2,-0.21
Cc1cccc(-c2[nH]ncc2CN2CC[C@](C)(O)C2)c1,3,-0.52
